Here are results for 73 sequences from PMC5892938.

Some of the results follow. At the low end of the ranking the order means little.

This assay addresses GST-SBP-SLBP (stem-loop binding protein) (UniProt Q14493). Put plainly: targeted RNA Bind-n-Seq.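 Further: DESeq read counts versus GST-SBP nonspecific binding control pulldown.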 The note with it: RBNS binding buffer: 25 mM Tris pH 7.5, 150 mM KCl, 3 mM MgCl2, 0.1% Tween, 0.5 mg/mL BSA, 1 mM DTT; 27 nM protein, 750 pM RNA pool; temperature not stated; high values mean tight binding.
Turning to “GGUCACGUCUCAAUCAACUCUUCUUCCAGGGAAAACCCUGGCUUUCUCAACAGCUCGCAGUCAAG”, the binding signal (log2 fold change) was -0.0269.
Next, “GGUCACGUCUCAAUCAACUCUUCCUCCAGGGAAACCCCUGGCAUAUUCAACAGCUCGCAGUCAAG”: -0.187; “GGUCACGUCUCAAUCAACUCUUCUCCAGGAGUUUUCUCCUGUUUUGUCAACAGCUCGCAGUCAAG”: 0.00732.
For “GGUCACGUCUCAAUCAACUCCCUCGAGGGGGGGAAAACCCCUUUACCCUCUUCUUCAACAGCUCGCAGUCAAG”, the binding signal (log2 fold change) is -0.52.
For “GGUCACGUCUCAAUCAACUCAUUCCCCAGGGAAAGCCCUGGUUUUCUCAACAGCUCGCAGUCAAG”, the binding signal (log2 fold change) was -0.17.
Next, “GGUCACGUCUCAAUCAACUCAUUCUCAGGAGUUUACUCCUGCAUACUCAACAGCUCGCAGUCAAG”: 0.0226.
“GGUCACGUCUCAAUCAACUCUUCCUCCAGGGAAAGCCCUGGCAAAUUCAACAGCUCGCAGUCAAG”: the binding signal (log2 fold change) was -0.518.
Regarding “GGUCACGUCUCAAUCAACUCUCAAGAGGGGGGGAAAACCCCUUUGCCCUCACCAUCAACAGCUCGCAGUCAAG”, the binding signal (log2 fold change) is -0.277.
On to “GGUCACGUCUCAAUCAACUCAUGUCCAGGAGUUUACUCCUGCUUAUUCAACAGCUCGCAGUCAAG”, for which the binding signal (log2 fold change) is -0.138.
“GGUCACGUCUCAAUCAACUCAUCUUCAGGAGUUUCCUCCUGUUUAGUCAACAGCUCGCAGUCAAG”: the binding signal (log2 fold change) amounted to 0.0284.
Take “GGUCACGUCUCAAUCAACUCCUAAGAGGGGGGGAAAACCCCUUUGCCCUCAAUGUCAACAGCUCGCAGUCAAG”: the binding signal (log2 fold change) worked out at 0.232.
With “GGUCACGUCUCAAUCAACUCUUCCUCCAGGGAAAGCCCUGGUAUACUCAACAGCUCGCAGUCAAG”, the binding signal (log2 fold change) was determined as 0.0345.
With “GGUCACGUCUCAAUCAACUCACAUGAGGGGGGGAAAACCCCUUUACCCUCCUAUUCAACAGCUCGCAGUCAAG” the figure was -0.583; with “GGUCACGUCUCAAUCAACUCGCAAGAGGGGGGGAAAACCCCUUUACCCUCAAAAUCAACAGCUCGCAGUCAAG”, 0.0808.
With “GGUCACGUCUCAAUCAACUCUAUUCCAGGAGUUUGCUCCUGCAUUUUCAACAGCUCGCAGUCAAG”, the binding signal (log2 fold change) was -0.0251.
As for “GGUCACGUCUCAAUCAACUCCCUCGAGGGGGGGAAAACCCCUUUACCCUCUAUCUCAACAGCUCGCAGUCAAG”, the binding signal (log2 fold change) is -0.555.
In the case of “GGUCACGUCUCAAUCAACUCAGUCCCAGGAGUUUACUCCUGCAAUUUCAACAGCUCGCAGUCAAG”, the binding signal (log2 fold change) is -0.107.
With “GGUCACGUCUCAAUCAACUCCCAAGAGGGGGGGAAAACCCCUUUACCCUCCAUAUCAACAGCUCGCAGUCAAG”, the binding signal (log2 fold change) was -0.243.
Regarding “GGUCACGUCUCAAUCAACUCUUUUUCCAGGGAAAUCCCUGGCGUAUUCAACAGCUCGCAGUCAAG”, the binding signal (log2 fold change) was -0.0428.
Take “GGUCACGUCUCAAUCAACUCUAUAGAGGGGGGGAAAACCCCUUUACCCUCAUUCUCAACAGCUCGCAGUCAAG”: the binding signal (log2 fold change) was -0.512.
In the case of “GGUCACGUCUCAAUCAACUCCUCCGAGGGGGGGAAAACCCCUUUACCCUCACCAUCAACAGCUCGCAGUCAAG”, the binding signal (log2 fold change) turned out to be 0.125.
Take “GGUCACGUCUCAAUCAACUCAUCCUCAGGAGUUUCCUCCUGCUUUUUCAACAGCUCGCAGUCAAG”: the binding signal (log2 fold change) turned out to be 0.0537.
Turning to “GGUCACGUCUCAAUCAACUCCCCAGAGGGGGGGAAAACCCCUUUACCCUCCAUAUCAACAGCUCGCAGUCAAG”, the binding signal (log2 fold change) turned out to be 0.573.
Regarding “GGUCACGUCUCAAUCAACUCAUUUCCAGGAGUUUUCUCCUGUUUAGUCAACAGCUCGCAGUCAAG”, the binding signal (log2 fold change) was determined as 0.0322.
For the sequence “GGUCACGUCUCAAUCAACUCUAUCCCAGGAGUUUCCUCCUGUAAUUUCAACAGCUCGCAGUCAAG”, the binding signal (log2 fold change) was -0.0381.
Next, “GGUCACGUCUCAAUCAACUCAAUAGAGGGGGGGAAAACCCCUUUGCCCUCAACCUCAACAGCUCGCAGUCAAG”: 0.157; “GGUCACGUCUCAAUCAACUCUUACGAGGGGGGGAAAACCCCUUUACCCUCUAUCUCAACAGCUCGCAGUCAAG”: -0.131; “GGUCACGUCUCAAUCAACUCUUCUCCAGGAGUUUUCUCCUGUUUAUUCAACAGCUCGCAGUCAAG”: -0.104.
As to “GGUCACGUCUCAAUCAACUCUUCGCCCAGGGAAAUCCCUGGUAAUCUCAACAGCUCGCAGUCAAG”, the binding signal (log2 fold change) is -0.0773.
Take “GGUCACGUCUCAAUCAACUCUAUCGCAGGAGUUUCCUCCUGGUUAUUCAACAGCUCGCAGUCAAG”: the binding signal (log2 fold change) was found to be 0.0533.
In the case of “GGUCACGUCUCAAUCAACUCAACUCCCAGGGAAACCCCUGGUAAUCUCAACAGCUCGCAGUCAAG”, the binding signal (log2 fold change) was 0.126.
As to “GGUCACGUCUCAAUCAACUCAAUUUCAGGAGUUUUCUCCUGCUAUGUCAACAGCUCGCAGUCAAG”, the binding signal (log2 fold change) is 0.0516.
With “GGUCACGUCUCAAUCAACUCUUCGUCCAGGGAAACCCCUGGUUAUUUCAACAGCUCGCAGUCAAG” the figure was -0.305; with “GGUCACGUCUCAAUCAACUCUUCUCCCAGGGAAAACCCUGGCUUUCUCAACAGCUCGCAGUCAAG”, 0.27.
“GGUCACGUCUCAAUCAACUCAUCUCCAGGAGUUUUCUCCUGUUUUCUCAACAGCUCGCAGUCAAG”: the binding signal (log2 fold change) is 0.0102.
For the sequence “GGUCACGUCUCAAUCAACUCCUUAGAGGGGGGGAAAACCCCUUUACCCUCAAACUCAACAGCUCGCAGUCAAG”, the binding signal (log2 fold change) was -0.0253.
For the sequence “GGUCACGUCUCAAUCAACUCUUCCCCAGGAGUUUCCUCCUGCAAAUUCAACAGCUCGCAGUCAAG”, the binding signal (log2 fold change) turned out to be 0.185.
As for “GGUCACGUCUCAAUCAACUCCUCCGAGGGGGGGAAAACCCCUUUACCCUCACAAUCAACAGCUCGCAGUCAAG”, the binding signal (log2 fold change) is -0.18.
In the case of “GGUCACGUCUCAAUCAACUCUUCUUCCAGGGAAAUCCCUGGUUAUUUCAACAGCUCGCAGUCAAG”, the binding signal (log2 fold change) amounted to 0.0519.
With “GGUCACGUCUCAAUCAACUCAUCCUCCAGGGAAAUCCCUGGUAUUUUCAACAGCUCGCAGUCAAG” the figure was -0.203.
As for “GGUCACGUCUCAAUCAACUCUUACGAGGGGGGGAAAACCCCUUUACCCUCAACUUCAACAGCUCGCAGUCAAG”, the binding signal (log2 fold change) is -0.468.
As for “GGUCACGUCUCAAUCAACUCUUCGUCAGGAGUUUACUCCUGUAUUUUCAACAGCUCGCAGUCAAG”, the binding signal (log2 fold change) is -0.00665.
With “GGUCACGUCUCAAUCAACUCCUUCGAGGGGGGGAAAACCCCUUUACCCUCAAACUCAACAGCUCGCAGUCAAG” the figure was -0.152; with “GGUCACGUCUCAAUCAACUCAUUUUCCAGGGAAAACCCUGGCUUAUUCAACAGCUCGCAGUCAAG”, -0.0462.
“GGUCACGUCUCAAUCAACUCAACGGCAGGAGUUUACUCCUGGAAUCUCAACAGCUCGCAGUCAAG”: the binding signal (log2 fold change) was -0.11.
“GGUCACGUCUCAAUCAACUCAAUUCCCAGGGAAAGCCCUGGCUUUCUCAACAGCUCGCAGUCAAG”: the binding signal (log2 fold change) came out at 0.183.
With “GGUCACGUCUCAAUCAACUCAUUCUCCAGGGAAAACCCUGGUAUAUUCAACAGCUCGCAGUCAAG”, the binding signal (log2 fold change) came to 0.155.
Consider “GGUCACGUCUCAAUCAACUCCUACGAGGGGGGGAAAACCCCUUUACCCUCCAAUUCAACAGCUCGCAGUCAAG”, for which the binding signal (log2 fold change) was -0.164.
Regarding “GGUCACGUCUCAAUCAACUCCUAAGAGGGGGGGAAAACCCCUUUACCCUCAUAAUCAACAGCUCGCAGUCAAG”, the binding signal (log2 fold change) was -0.0274.
With “GGUCACGUCUCAAUCAACUCAGUCCCAGGAGUUUCCUCCUGCAUUUUCAACAGCUCGCAGUCAAG” the figure was 0.126; with “GGUCACGUCUCAAUCAACUCAAAAGAGGGGGGGAAAACCCCUUUACCCUCGGAAUCAACAGCUCGCAGUCAAG”, -0.217; with “GGUCACGUCUCAAUCAACUCUUUUCCCAGGGAAAACCCUGGUUAAUUCAACAGCUCGCAGUCAAG”, -0.169.
With “GGUCACGUCUCAAUCAACUCAAGUCCAGGAGUUUUCUCCUGCAAUUUCAACAGCUCGCAGUCAAG” the figure was 0.169.
Next, “GGUCACGUCUCAAUCAACUCUUCCUCAGGAGUUUACUCCUGCUUAUUCAACAGCUCGCAGUCAAG”: -0.0597.
For the sequence “GGUCACGUCUCAAUCAACUCAUUCCCAGGAGUUUUCUCCUGCUAACUCAACAGCUCGCAGUCAAG”, the binding signal (log2 fold change) was determined as 0.00129.
For “GGUCACGUCUCAAUCAACUCAAUUCCCAGGGAAAGCCCUGGCAUAGUCAACAGCUCGCAGUCAAG”, the binding signal (log2 fold change) turned out to be 0.0743.
As for “GGUCACGUCUCAAUCAACUCCUCCGAGGGGGGGAAAACCCCUUUACCCUCAAUAUCAACAGCUCGCAGUCAAG”, the binding signal (log2 fold change) is -0.000509.
Turning to “GGUCACGUCUCAAUCAACUCAUUUCCCAGGGAAAGCCCUGGUUUUCUCAACAGCUCGCAGUCAAG”, the binding signal (log2 fold change) was 0.155.
Regarding “GGUCACGUCUCAAUCAACUCUUCUUCAGGAGUUUCCUCCUGCUUUUUCAACAGCUCGCAGUCAAG”, the binding signal (log2 fold change) was -0.0978.
“GGUCACGUCUCAAUCAACUCCCUAGAGGGGGGGAAAACCCCUUUACCCUCGUCUUCAACAGCUCGCAGUCAAG”: the binding signal (log2 fold change) is -0.164.
Take “GGUCACGUCUCAAUCAACUCAUUUUCAGGAGUUUGCUCCUGCUAACUCAACAGCUCGCAGUCAAG”: the binding signal (log2 fold change) worked out at 0.104.
In the case of “GGUCACGUCUCAAUCAACUCAUUUUCCAGGGAAAACCCUGGUAUUUUCAACAGCUCGCAGUCAAG”, the binding signal (log2 fold change) came out at 0.0417.
Next, “GGUCACGUCUCAAUCAACUCAUCGCCAGGAGUUUCCUCCUGUAUUCUCAACAGCUCGCAGUCAAG”: -0.0278.
Regarding “GGUCACGUCUCAAUCAACUCUACUCCAGGAGUUUACUCCUGUUUAUUCAACAGCUCGCAGUCAAG”, the binding signal (log2 fold change) stood at 0.13.
For the sequence “GGUCACGUCUCAAUCAACUCUACUCCCAGGGAAAACCCUGGCUUAUUCAACAGCUCGCAGUCAAG”, the binding signal (log2 fold change) is 0.126.
On to “GGUCACGUCUCAAUCAACUCUUUUUCCAGGGAAAGCCCUGGCUAACUCAACAGCUCGCAGUCAAG”, for which the binding signal (log2 fold change) was 0.15.
Take “GGUCACGUCUCAAUCAACUCCAUAGAGGGGGGGAAAACCCCUUUGCCCUCAGAAUCAACAGCUCGCAGUCAAG”: the binding signal (log2 fold change) is -0.302.
“GGUCACGUCUCAAUCAACUCUAUGGAGGGGGGGAAAACCCCUUUACCCUCGUUUUCAACAGCUCGCAGUCAAG”: the binding signal (log2 fold change) is -0.2.
As for “GGUCACGUCUCAAUCAACUCUCUCGAGGGGGGGAAAACCCCUUUACCCUCAACCUCAACAGCUCGCAGUCAAG”, the binding signal (log2 fold change) is -0.276.
“GGUCACGUCUCAAUCAACUCUAUCCCAGGAGUUUCCUCCUGUUUUUUCAACAGCUCGCAGUCAAG”: the binding signal (log2 fold change) was determined as 0.0574.
“GGUCACGUCUCAAUCAACUCAUUUUCAGGAGUUUACUCCUGUUAUUUCAACAGCUCGCAGUCAAG”: the binding signal (log2 fold change) came to 0.0529.
With “GGUCACGUCUCAAUCAACUCUCUCGAGGGGGGGAAAACCCCUUUACCCUCAUCCUCAACAGCUCGCAGUCAAG”, the binding signal (log2 fold change) was -0.296.
For “GGUCACGUCUCAAUCAACUCAUCCUCCAGGGAAAUCCCUGGUAUAUUCAACAGCUCGCAGUCAAG”, the binding signal (log2 fold change) is -0.0133.
